From patent US20260000764A1 (CITY OF HOPE, published 2026) come the findings set out here.

For orientation: Kd means the equilibrium constant for the complex coming apart. What is called koff is the first-order rate constant of dissociation. By kon is commonly meant the second-order rate constant of association.

Assay [1] concerns the target T1, Biotinylated recombinant human IL-13Rα1 ectodomain with C-terminal biotin acceptor peptide and hexahistidine … (human, UniProt P78552 22-343, biotin on the biotin acceptor peptide (coexpressed with BirA ligase)).
T1 construct: extracellular domain; also called recombinant IL13Rα1; biotinylated IL13Rα1
T1 sequence: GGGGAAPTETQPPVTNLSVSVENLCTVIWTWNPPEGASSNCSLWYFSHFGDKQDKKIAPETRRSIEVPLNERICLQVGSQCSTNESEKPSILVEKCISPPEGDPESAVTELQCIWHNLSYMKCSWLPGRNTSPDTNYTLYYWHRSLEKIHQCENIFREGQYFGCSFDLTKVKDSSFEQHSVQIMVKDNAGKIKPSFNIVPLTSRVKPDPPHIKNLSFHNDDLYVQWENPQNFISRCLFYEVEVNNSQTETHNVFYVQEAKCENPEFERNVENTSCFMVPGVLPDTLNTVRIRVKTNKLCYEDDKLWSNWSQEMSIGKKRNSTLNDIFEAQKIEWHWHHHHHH
The experiment in a line: SPR, IL-13Rα1 immobilized on the chip, IL-13 flowed; panel titled IL-13/IL-13Rα1. The source says: (§1) FIG. 2A-2F: IL-13Rα1 and IL-13Rα2 binding affinities of the IL-13 variant. (A-C) Surface plasmon resonance measurements of IL-13, IL-13 D7 and IL-13 C4 for IL-13Rα1. IL-13Rα1 was immobilized on the surface of the chip and the indicated doses of IL-13 or the two IL-13 mutants were flowed. (D-F) Surface plasmon resonance measurements of IL-13,IL-13 D7 and IL-13 C4 for IL-13Rα2. IL-13Rα2 was immobilized on the surface of the chip and the indicated doses of IL-13 or the two IL-13 mutants were flowed.
(§2) SPR experiments were conducted on a Biacore T100 instrument using a Biacore SA sensor chip (GE Healthcare). Biotinylated IL-13Rα1/IL-13Rα2 was captured at a low density (50-100 response units (RU)) and kinetics measurements were conducted at 30 μL/min. An unrelated biotinylated protein was immobilized as a reference surface for the SA sensor chip with matching RU to the experimental surface. All measurements were made using 3-fold serial dilutions of IL-13 agonists in the running buffer (1×HBS-P, 0.1% BSA). The IL-13Rα1/IL-13Rα2 bound to the chip surface was regenerated with 7 mM glycine (pH 3.0) and 250 mM NaCl. Kinetic parameters were determined using 120 s to 190 s of IL-13 agonist association time and 20 s to 1200 s dissociation time. All data fitting was performed using the Biacore T100 evaluation software version 2.0 with a 1:1 Langmuir binding model.
For orientation: SPR reads the build-up and loss of mass on a sensor chip optically.

In assay [2] the target is T2, Biotinylated recombinant human IL-13Rα2 ectodomain with C-terminal biotin acceptor peptide and hexahistidine … (human, UniProt Q14627 27-343, biotin on the biotin acceptor peptide (coexpressed with BirA ligase)).
T2 construct: extracellular domain; also called recombinant IL13Rα2; biotinylated IL13Rα2
T2 sequence: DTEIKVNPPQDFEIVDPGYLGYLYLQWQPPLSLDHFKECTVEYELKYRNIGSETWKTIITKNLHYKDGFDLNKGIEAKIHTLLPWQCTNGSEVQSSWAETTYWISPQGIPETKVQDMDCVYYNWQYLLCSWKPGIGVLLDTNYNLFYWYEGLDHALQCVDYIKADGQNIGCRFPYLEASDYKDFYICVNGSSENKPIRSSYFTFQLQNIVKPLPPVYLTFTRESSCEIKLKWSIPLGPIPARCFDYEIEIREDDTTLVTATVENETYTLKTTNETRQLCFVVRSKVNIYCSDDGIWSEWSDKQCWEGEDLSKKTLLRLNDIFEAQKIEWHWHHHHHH
The assay can be described thus: SPR; ratio column of the drawn table, IL13Rα2.
From the text: as §1, §2

In assay [3] the target is T2, Biotinylated recombinant human IL-13Rα2 …. The assay can be described thus: SPR, IL-13Rα2 immobilized on the chip, IL-13 flowed; panel titled IL-13/IL-13Rα2.
From the text: as §1, §2

Assay [4] shares this target. The assay can be described thus: SPR (Biacore T100), biotinylated IL-13Rα2 captured on SA chip, IL-13 flowed, 1:1 Langmuir fit. Here is the method: as §2
The target in assay [5] is T1, Biotinylated recombinant human IL-13Rα1 …. The assay can be described thus: SPR; ratio column of the drawn table, IL13Rα1.
From the text: as §1, §2

The target is the same in assay [6]. The assay can be described thus: SPR (Biacore T100), biotinylated IL-13Rα1 captured on SA chip, IL-13 flowed, 1:1 Langmuir fit. As to the method: as §2

B1: Human IL-13 wild type, soluble recombinant protein with C-terminal hexahistidine tag (ligand)
chain: not shown
notes: Soluble cytokine used in SPR and in the signalling assays; also called IL13 WT; WT
Take B1: the Kd in assay [1] and in assay [6] was 4.38 nM in each case. The koff in assay [1] amounted to 0.022 s⁻¹; in assay [3] it was 8.4e-05 s⁻¹; in assay [4], 8.4e-05 s⁻¹; in assay [6], 0.022 s⁻¹. Also, the kon is 5.21e+06 M⁻¹ s⁻¹ in assay [1], 5e+07 M⁻¹ s⁻¹ in assay [3], 5e+07 M⁻¹ s⁻¹ in assay [4] and 5.21e+06 M⁻¹ s⁻¹ in assay [6]. Further, the KDwt/KD mut in assay [2] and in assay [5] was 1 in each case.
